# From the supplement of paper PMC8728848
# Some of the results follow.
# Key:
# Assay in all cases: glycan array binding signal (z-score within array); higher = stronger binding
# Settings in all cases: glycan notation: IUPAC condensed, linker removed
# [1] = target: Glc(a1-4)Glc(a1-4)Glc(a1-4)Glc(a1-4)Glc(a1-4)Glc(a1-4)Glc(a1-4)Glc(a1-4)Glc(a1-4)Glc(a1-4)Glc(a1-4)Glc
# Method in brief: (§1)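 Glycan array data were curated from 3228 arrays in the Consortium for Functional Glycomics database and kept only where the protein sequence was available. Glycan names were converted to IUPAC-condensed notation, and columns mapping to the same glycan were averaged. The binding signal is a within-array Z-score, averaged across arrays of the same protein sequence at different concentrations or buffers and across linkers. Negative Z-scores can be read as non-binding.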
# [2] = target: Glc(a1-4)Glc(a1-4)Glc(a1-4)Glc(a1-4)Glc(a1-4)Glc(a1-4)Glc(a1-4)Glc(a1-4)Glc(a1-4)Glc(a1-4)Glc(a1-4)Glc(a1-4)Glc
# Method in brief: as §1
# [3] = target: Glc(a1-4)Glc(a1-6)Glc
# Method in brief: as §1
# [4] = target: Glc(a1-6)Glc
# Method in brief: as §1
# [5] = target: Glc(a1-6)Glc(a1-4)Glc
# Method in brief: as §1
# [6] = target: Glc(a1-6)Glc(a1-4)Glc(a1-4)Glc
# Method in brief: as §1
# [7] = target: Glc(a1-6)Glc(a1-4)Glc(a1-4)Glc(a1-6)Glc(a1-4)Glc(a1-4)Glc
# Method in brief: as §1
# [8] = target: Glc(a1-6)Glc(a1-6)Glc
# Method in brief: as §1
# [9] = target: Glc(a1-6)Glc(a1-6)Glc(a1-6)Glc
# Method in brief: as §1
# [10] = target: Glc(a1-6)Glc(a1-6)Glc(a1-6)Glc(a1-6)Glc
# Method in brief: as §1
# [11] = target: Glc(a1-6)Glc(a1-6)Glc(a1-6)Glc(a1-6)Glc(a1-6)Glc
# Method in brief: as §1
# [12] = target: Glc(a1-6)Glc(a1-6)Glc(a1-6)Glc(a1-6)Glc(a1-6)Glc(a1-6)Glc
# Method in brief: as §1
# [13] = target: Glc(a1-6)Glc(a1-6)Glc(a1-6)Glc(a1-6)Glc(a1-6)Glc(a1-6)Glc(a1-6)Glc
# Method in brief: as §1
# [14] = target: Glc(a1-6)Glc(a1-6)Glc(a1-6)Glc(a1-6)Glc(a1-6)Glc(a1-6)Glc(a1-6)Glc(a1-6)Glc
# Method in brief: as §1
# [15] = target: Glc(a1-6)Glc(a1-6)Glc(a1-6)Glc(a1-6)Glc(a1-6)Glc(a1-6)Glc(a1-6)Glc(a1-6)Glc(a1-6)Glc
# Method in brief: as §1
# [16] = target: Glc(a1-6)Glc(a1-6)Glc(a1-6)Glc(a1-6)Glc(a1-6)Glc(a1-6)Glc(a1-6)Glc(a1-6)Glc(a1-6)Glc(a1-6)Glc
# Method in brief: as §1
# [17] = target: Glc(a1-6)Glc(a1-6)Glc(a1-6)Glc(a1-6)Glc(a1-6)Glc(a1-6)Glc(a1-6)Glc(a1-6)Glc(a1-6)Glc(a1-6)Glc(a1-6)Glc
# Method in brief: as §1
# [18] = target: Glc(a1-6)Glc(a1-6)Glc(a1-6)Glc(a1-6)Glc(a1-6)Glc(a1-6)Glc(a1-6)Glc(a1-6)Glc(a1-6)Glc(a1-6)Glc(a1-6)Glc(a1-6)Glc
# Method in brief: as §1
# [19] = target: Glc(b1-2)Glc
# Method in brief: as §1
# [20] = target: Glc(b1-2)Glc(b1-2)Glc
# Method in brief: as §1
# [21] = target: Glc(b1-2)Glc(b1-2)Glc(b1-2)Glc
# Method in brief: as §1
# [22] = target: Glc(b1-2)Glc(b1-2)Glc(b1-2)Glc(b1-2)Glc
# Method in brief: as §1
# [23] = target: Glc(b1-2)Glc(b1-2)Glc(b1-2)Glc(b1-2)Glc(b1-2)Glc
# Method in brief: as §1
# [24] = target: Glc(b1-2)Glc(b1-2)Glc(b1-2)Glc(b1-2)Glc(b1-2)Glc(b1-2)Glc
# Method in brief: as §1
# [25] = target: Glc(b1-2)Glc(b1-2)Glc(b1-2)Glc(b1-2)Glc(b1-2)Glc(b1-2)Glc(b1-2)Glc
# Method in brief: as §1
# [26] = target: Glc(b1-2)Glc(b1-2)Glc(b1-2)Glc(b1-2)Glc(b1-2)Glc(b1-2)Glc(b1-2)Glc(b1-2)Glc
# Method in brief: as §1
# [27] = target: Glc(b1-2)Glc(b1-2)Glc(b1-2)Glc(b1-2)Glc(b1-2)Glc(b1-2)Glc(b1-2)Glc(b1-2)Glc(b1-2)Glc
# Method in brief: as §1
# [28] = target: Glc(b1-2)Glc(b1-2)Glc(b1-2)Glc(b1-2)Glc(b1-2)Glc(b1-2)Glc(b1-2)Glc(b1-2)Glc(b1-2)Glc(b1-2)Glc
# Method in brief: as §1
# [29] = target: Glc(b1-2)Glc(b1-2)Glc(b1-2)Glc(b1-2)Glc(b1-2)Glc(b1-2)Glc(b1-2)Glc(b1-2)Glc(b1-2)Glc(b1-2)Glc(b1-2)Glc
# Method in brief: as §1
# [30] = target: Glc(b1-2)Glc(b1-2)Glc(b1-2)Glc(b1-2)Glc(b1-2)Glc(b1-2)Glc(b1-2)Glc(b1-2)Glc(b1-2)Glc(b1-2)Glc(b1-2)Glc(b1-2)Glc
# Method in brief: as §1
# [31] = target: Glc(b1-3)Glc
# Method in brief: as §1
# [32] = target: Glc(b1-3)Glc(b1-3)Glc
# Method in brief: as §1
# [33] = target: Glc(b1-3)Glc(b1-3)Glc(b1-3)Glc
# Method in brief: as §1
# [34] = target: Glc(b1-3)Glc(b1-3)Glc(b1-3)Glc(b1-3)Glc
# Method in brief: as §1
# [35] = target: Glc(b1-3)Glc(b1-3)Glc(b1-3)Glc(b1-3)Glc(b1-3)Glc
# Method in brief: as §1
# [36] = target: Glc(b1-3)Glc(b1-3)Glc(b1-3)Glc(b1-3)Glc(b1-3)Glc(b1-3)Glc
# Method in brief: as §1
# [37] = target: Glc(b1-3)Glc(b1-3)Glc(b1-3)Glc(b1-3)Glc(b1-3)Glc(b1-3)Glc(b1-3)Glc
# Method in brief: as §1
# [38] = target: Glc(b1-3)Glc(b1-3)Glc(b1-3)Glc(b1-3)Glc(b1-3)Glc(b1-3)Glc(b1-3)Glc(b1-3)Glc
# Method in brief: as §1
# [39] = target: Glc(b1-3)Glc(b1-3)Glc(b1-3)Glc(b1-3)Glc(b1-3)Glc(b1-3)Glc(b1-3)Glc(b1-3)Glc(b1-3)Glc
# Method in brief: as §1
# [40] = target: Glc(b1-3)Glc(b1-3)Glc(b1-3)Glc(b1-3)Glc(b1-3)Glc(b1-3)Glc(b1-3)Glc(b1-3)Glc(b1-3)Glc(b1-3)Glc
# Method in brief: as §1
# [41] = target: Glc(b1-3)Glc(b1-3)Glc(b1-3)Glc(b1-3)Glc(b1-3)Glc(b1-3)Glc(b1-3)Glc(b1-3)Glc(b1-3)Glc(b1-3)Glc(b1-3)Glc
# Method in brief: as §1
# [42] = target: Glc(b1-3)Glc(b1-3)Glc(b1-3)Glc(b1-3)Glc(b1-3)Glc(b1-3)Glc(b1-3)Glc(b1-3)Glc(b1-3)Glc(b1-3)Glc(b1-3)Glc(b1-3)Glc
# Method in brief: as §1
binder,measurement,setting,value
"Unk16A (Cellvibrio mixtus), Q336L6 (protein) VAYNTTGASSSAASSSAPSSASSSSSSAAPVLLSQGRPVTASSNFQPAANAVDGNGGTRWESTHGVSPSWIMVDLGSSKNLSQVIIDWEAANAANYLVQASNNGMSWTTLKIITTGAFGDRTDTHSVAGNYRYVRIYATARSAGNQWGYSIWELKITGN",glycan array binding signal (z-score),[1],-0.664
same,glycan array binding signal (z-score),[2],-0.659
same,glycan array binding signal (z-score),[3],-0.668
same,glycan array binding signal (z-score),[4],-0.668
same,glycan array binding signal (z-score),[5],-0.668
same,glycan array binding signal (z-score),[6],-0.668
same,glycan array binding signal (z-score),[7],-0.668
same,glycan array binding signal (z-score),[8],-0.668
same,glycan array binding signal (z-score),[9],-0.668
same,glycan array binding signal (z-score),[10],-0.668
same,glycan array binding signal (z-score),[11],-0.668
same,glycan array binding signal (z-score),[12],-0.668
same,glycan array binding signal (z-score),[13],-0.664
same,glycan array binding signal (z-score),[14],-0.668
same,glycan array binding signal (z-score),[15],-0.668
same,glycan array binding signal (z-score),[16],-0.668
same,glycan array binding signal (z-score),[17],-0.666
same,glycan array binding signal (z-score),[18],-0.668
same,glycan array binding signal (z-score),[19],-0.346
same,glycan array binding signal (z-score),[20],0.364
same,glycan array binding signal (z-score),[21],0.509
same,glycan array binding signal (z-score),[22],2.23
same,glycan array binding signal (z-score),[23],2.74
same,glycan array binding signal (z-score),[24],2.22
same,glycan array binding signal (z-score),[25],1.69
same,glycan array binding signal (z-score),[26],3.49
same,glycan array binding signal (z-score),[27],2.11
same,glycan array binding signal (z-score),[28],2.77
same,glycan array binding signal (z-score),[29],2.06
same,glycan array binding signal (z-score),[30],2.47
same,glycan array binding signal (z-score),[31],-0.518
same,glycan array binding signal (z-score),[32],-0.3
same,glycan array binding signal (z-score),[33],0.752
same,glycan array binding signal (z-score),[34],0.669
same,glycan array binding signal (z-score),[35],0.423
same,glycan array binding signal (z-score),[36],0.237
same,glycan array binding signal (z-score),[37],1.73
same,glycan array binding signal (z-score),[38],0.996
same,glycan array binding signal (z-score),[39],0.922
same,glycan array binding signal (z-score),[40],0.917
same,glycan array binding signal (z-score),[41],1.49
same,glycan array binding signal (z-score),[42],0.753
